Measured values taken from the antibiotic and cytotoxicity screens of Wong et al. (2023).
The other results are listed elsewhere or left out.

How the values were obtained:
HSkMC = human skeletal muscle cells; assay: cytotoxicity call (relative viability < 0.9); settings: 10 µM
HepG2 = assay: cytotoxicity call (relative viability < 0.9); settings: 10 µM
S. aureus RN4220 = assay: growth inhibition call (relative growth <= 0.2); settings: 50 µM

Cc1ccc(S(=O)(=O)N[C@H]2CC[C@H](CC(=O)N3CCC(Cc4ccccc4)CC3)O[C@@H]2CO)cc1
inactive: cytotoxicity call (HSkMC) | cytotoxicity call (HepG2) | growth inhibition call (S. aureus RN4220)

C[C@H](CO)N1C[C@H](C)[C@H](CN(C)C(=O)Nc2ccccc2)OCc2ccccc2-c2c(n(C)c3ccccc23)C1=O
inactive: cytotoxicity call (HSkMC) | cytotoxicity call (HepG2) | growth inhibition call (S. aureus RN4220)

O=C(NC[C@H]1CCCO1)c1ccc(/C=N/O)nc1
inactive: cytotoxicity call (HSkMC) | cytotoxicity call (HepG2) | growth inhibition call (S. aureus RN4220)

C[C@@H]1CN([C@H](C)CO)C(=O)c2cccc(NS(=O)(=O)c3cn(C)cn3)c2O[C@H]1CN(C)C(=O)Nc1ccccc1
inactive: cytotoxicity call (HSkMC) | cytotoxicity call (HepG2) | growth inhibition call (S. aureus RN4220)

Cc1ccc(S(=O)(=O)Nc2ccc3c(c2)C(=O)N([C@@H](C)CO)C[C@@H](C)[C@@H](CN(C)Cc2ccncc2)OCCCC[C@@H](C)O3)cc1
inactive: cytotoxicity call (HSkMC) | cytotoxicity call (HepG2) | growth inhibition call (S. aureus RN4220)

Cc1[nH]c(=O)[nH]c(=O)c1S(=O)(=O)N1CCC(C(=O)N[C@H](C)c2ccccc2)CC1
inactive: cytotoxicity call (HSkMC) | cytotoxicity call (HepG2) | growth inhibition call (S. aureus RN4220)

COc1ccc(S(=O)(=O)Nc2ccc3c(c2)CC(=O)N([C@@H](C)CO)C[C@@H](C)[C@H](CN(C)Cc2ccc(Cl)c(Cl)c2)O3)cc1
inactive: cytotoxicity call (HSkMC) | cytotoxicity call (HepG2) | growth inhibition call (S. aureus RN4220)

CC(C)CN(C[C@@H](OP(=O)(O)O)[C@H](Cc1ccccc1)NC(=O)O[C@H]1CCOC1)S(=O)(=O)c1ccc(N)cc1
inactive: cytotoxicity call (HSkMC) | cytotoxicity call (HepG2) | growth inhibition call (S. aureus RN4220)

C/C=C/c1ccc2c(c1)O[C@H](CN(C)Cc1ccc(C(=O)O)cc1)[C@@H](C)CN([C@@H](C)CO)S2(=O)=O
inactive: cytotoxicity call (HSkMC) | cytotoxicity call (HepG2) | growth inhibition call (S. aureus RN4220)

CCNC(=O)C[C@H]1CC[C@H]2[C@@H](COC[C@@H](O)CN2S(=O)(=O)c2ccc(Oc3ccccc3)cc2)O1
inactive: cytotoxicity call (HSkMC) | cytotoxicity call (HepG2) | growth inhibition call (S. aureus RN4220)

C[C@@H]1CN([C@H](C)CO)C(=O)Cc2cc(NS(C)(=O)=O)ccc2O[C@@H]1CN(C)Cc1ccc(C(F)(F)F)cc1
inactive: cytotoxicity call (HSkMC) | cytotoxicity call (HepG2) | growth inhibition call (S. aureus RN4220)

C[C@H]1CN([C@@H](C)CO)C(=O)c2cccc(NC(=O)Nc3ccccc3)c2O[C@H]1CN(C)S(=O)(=O)c1cn(C)cn1
inactive: cytotoxicity call (HSkMC) | cytotoxicity call (HepG2) | growth inhibition call (S. aureus RN4220)

O.O.OCC1OC(OC2OC(CO)C(O)C(O)C2O)C(O)C(O)C1O (centres undefined)
inactive: cytotoxicity call (HSkMC) | cytotoxicity call (HepG2) | growth inhibition call (S. aureus RN4220)

O=C(C[C@H]1CC[C@@H](NC(=O)CN2CCOCC2)[C@H](CO)O1)NCCc1ccncc1
inactive: cytotoxicity call (HSkMC) | cytotoxicity call (HepG2) | growth inhibition call (S. aureus RN4220)

C[C@H](CO)N1C[C@H](C)[C@@H](CN(C)S(C)(=O)=O)OCc2ccccc2-c2c(n(C)c3ccccc23)C1=O
inactive: cytotoxicity call (HSkMC) | cytotoxicity call (HepG2) | growth inhibition call (S. aureus RN4220)

C[C@@H]1CN([C@@H](C)CO)C(=O)c2cc(NC(=O)Nc3ccccc3)ccc2O[C@@H](C)CCCCO[C@@H]1CN(C)S(=O)(=O)c1cccs1
inactive: cytotoxicity call (HSkMC) | cytotoxicity call (HepG2) | growth inhibition call (S. aureus RN4220)

CC(C)NC(=O)Nc1ccc2c(c1)C(=O)N([C@H](C)CO)C[C@H](C)[C@@H](CN(C)C(=O)Nc1ccccc1)OCCCC[C@@H](C)O2
inactive: cytotoxicity call (HSkMC) | cytotoxicity call (HepG2) | growth inhibition call (S. aureus RN4220)

C[C@@H]1CCCCO[C@@H](CN(C)S(=O)(=O)c2ccc(Cl)cc2)[C@H](C)CN([C@@H](C)CO)C(=O)c2cc(NC(=O)Nc3ccc(C(F)(F)F)cc3)ccc2O1
inactive: cytotoxicity call (HSkMC) | cytotoxicity call (HepG2) | growth inhibition call (S. aureus RN4220)
